# The list shows a part of the results. At the low end of the ranking the order means little.
# System: T1, GST-NbGlk1(82-244)
# T1 sequence: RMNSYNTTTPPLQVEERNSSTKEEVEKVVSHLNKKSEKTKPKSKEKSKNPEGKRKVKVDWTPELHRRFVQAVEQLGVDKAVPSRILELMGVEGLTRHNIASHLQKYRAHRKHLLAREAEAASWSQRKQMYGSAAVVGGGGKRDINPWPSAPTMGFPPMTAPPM
# Assay: protein-binding microarray;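 also: rank-based score ranging −0.5 to +0.5 with E above 0.45 taken as significant binding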
# Settings: NbGlk1 is a Golden2-like transcription factor of Nicotiana benthamiana; high values mean tight binding; most listed sequences are background and not binding sites; double strand, one strand shown
row,Sequence,binding signal
1,ATGTTGGC,-0.113 E-score
2,ACGTGAGA,-0.0736 E-score
3,ATTGGCAC,-0.114 E-score
4,AGAGCGCC,-0.239 E-score
5,AGTTGACA,0.00696 E-score
6,ATGGGGCC,-0.216 E-score
7,AGCTCTGG,-0.166 E-score
8,AACATCGT,0.00391 E-score
9,AGATAATC,0.339 E-score
10,ATGTGCTA,-0.114 E-score
11,ACAACAAG,-0.0212 E-score
12,AGAGAACA,-0.0544 E-score
13,ACTGACGA,-0.00265 E-score
14,ACCCTATC,-0.113 E-score
15,ACGATCGT,0.179 E-score
16,ATCCGGTG,0.295 E-score
17,AAGGACTG,-0.223 E-score
18,AACCGGAT,0.233 E-score
19,AGGAATAG,-0.137 E-score
20,AAGTAAGT,0.00921 E-score
21,ATCCCGAC,0.236 E-score
22,AAGGGGTC,-0.339 E-score
23,AAAATTCA,0.0726 E-score
24,AGGCCAGA,-0.0612 E-score
25,ACATCACA,-0.0948 E-score

row,Sequence,binding signal
1,CACAGTTA,-0.0121 E-score
2,CACGGCCG,-0.181 E-score
3,ATATTGCG,0.328 E-score
4,AGATGACG,-0.0603 E-score
5,AAGTCTTC,-0.0766 E-score
6,AATTTATG,0.136 E-score
7,ACCATCCA,-0.05 E-score
8,ATTGACAC,-0.0173 E-score
9,AGTAGAGA,-0.00507 E-score
10,ACCGCATC,-0.0245 E-score
11,AGACGCGA,0.12 E-score
12,ACCTCCTC,-0.283 E-score
13,AAACTTGA,-0.0302 E-score
14,AATCCATA,0.379 E-score
15,CACATCGC,-0.0862 E-score
16,ATGGGACA,-0.104 E-score
17,AATGGCCA,-0.223 E-score
18,CACTGTTC,-0.0306 E-score
19,ATCGAGAC,-0.00929 E-score
20,ATATTTGG,0.153 E-score
21,ACCCCCGC,-0.224 E-score
22,ATAAACGC,-0.0452 E-score
23,ACAAATGA,0.0633 E-score
24,ATGTCCTG,-0.143 E-score
25,AATAACAG,0.0587 E-score

row,Sequence,binding signal
1,AATGCTGC,-0.186 E-score
2,ATTGAGAG,-0.0172 E-score
3,CACCGCGC,-0.0057 E-score
4,ATGGGTCC,-0.242 E-score
5,AGTTGGTA,0.0777 E-score
6,AGCTTTGC,-0.107 E-score
7,AAGAGCGA,0.00939 E-score
8,AGGTTTCA,-0.179 E-score
9,AGCATACA,-0.0867 E-score
10,AGCACAGG,-0.236 E-score
11,AACCACTT,-0.0254 E-score
12,ACTGCGGG,-0.0271 E-score
13,ACAACCGC,-0.0874 E-score
14,AGCTGAGA,0.0806 E-score
15,AGATATAG,0.225 E-score
16,ATACTTTA,0.1 E-score
17,AAGGGTGC,-0.283 E-score
18,AGGCCCAT,-0.211 E-score
19,ACCCAAGT,-0.225 E-score
20,ATGGGCCC,-0.342 E-score
21,ACTAGTCA,-0.193 E-score
22,ATAGTCAG,-0.0731 E-score
23,AGTAATGG,-0.0934 E-score
24,CAAGCGAA,-0.00999 E-score
25,ACTAGATG,-0.117 E-score

row,Sequence,binding signal
1,AGGAAGCG,-0.173 E-score
2,CAATGTGA,-0.0157 E-score
3,AGGGGGAC,-0.333 E-score
4,ATTGGGAG,0.0185 E-score
5,AAAGTACC,-0.141 E-score
6,AAAATGTG,0.01 E-score
7,ATACCTAT,0.0775 E-score
8,ACGATGCC,-0.205 E-score
9,ATCCCCCC,0.0775 E-score
10,AGGTGACA,-0.0422 E-score
11,ACTACGAA,-0.0463 E-score
12,ACCGGTCC,-0.153 E-score
13,ATAAATCA,0.239 E-score
14,ACCATACA,-0.0128 E-score
15,AAAGTCCC,-0.34 E-score
16,ACTGGCCC,-0.171 E-score
17,ACACAAGC,-0.116 E-score
18,AAACGAGA,0.137 E-score
19,ACACTGGC,-0.185 E-score
20,AAGAGTCG,-0.0465 E-score
21,ATTTGATC,0.164 E-score
22,ATCAGCTA,0.109 E-score
23,ATCCGCAG,0.223 E-score
24,AAGACGGC,-0.248 E-score
25,AACGTACC,-0.247 E-score

row,Sequence,binding signal
1,AAAAGAGT,0.0215 E-score
2,CACAACAA,0.141 E-score
3,AGTCTCCC,-0.377 E-score
4,AGCAGCAC,-0.174 E-score
5,AAGACCGA,-0.234 E-score
6,ATGAAGCC,-0.296 E-score
7,CAAGCGAC,-0.14 E-score
8,ACGTAAAC,-0.062 E-score
9,AAGCTCCT,-0.305 E-score
10,AGCATGTC,-0.121 E-score
11,CAGCAGGA,-0.132 E-score
12,ATGCACTC,-0.182 E-score
13,AATCTGCC,0.34 E-score
14,ATCCGATG,0.208 E-score
15,CACAGGCG,-0.171 E-score
16,AGTTCTGC,-0.0185 E-score
17,ATATACCG,0.0722 E-score
18,AGCACTTA,-0.0371 E-score
19,AGCCGCCT,-0.236 E-score
20,CAGAAGGC,-0.286 E-score
21,AACTACCA,-0.0569 E-score
22,ATCCTAGC,0.237 E-score
23,AGGCACCT,-0.254 E-score
24,CACTCCGC,-0.203 E-score
25,CAGCGTCC,-0.16 E-score

row,Sequence,binding signal
1,CAACTTTA,-0.034 E-score
2,ACGGAGAG,-0.185 E-score
3,CAAACACC,-0.104 E-score
4,AGATTCCA,0.433 E-score
5,AATTACCT,0.213 E-score
6,AAACGTTC,-0.171 E-score
7,AAGTTAGT,0.00702 E-score
8,AGCCGACT,-0.187 E-score
9,CAATACAG,0.0681 E-score
10,AACGAGCT,-0.0762 E-score
11,AGTGGAGG,-0.202 E-score
12,AAACCCTC,-0.237 E-score
13,ATTTCGTG,0.367 E-score
14,ACCGTTTG,-0.0244 E-score
15,ATATCCGG,0.436 E-score
16,AGCGGCGG,-0.205 E-score
17,ACGATGCG,-0.0275 E-score
18,ATTCGTTA,0.202 E-score
19,AGTCATTG,-0.0345 E-score
20,ATGAGCTA,-0.171 E-score
21,ACTTGGAA,0.0699 E-score
22,AGTAACTA,0.0576 E-score
23,AGTGCTAA,-0.0173 E-score
24,ACAGGTAG,-0.0986 E-score
25,AAACCAGT,-0.0791 E-score

row,Sequence,binding signal
1,AACAAAGC,-0.0125 E-score
2,AGAAACCG,-0.0287 E-score
3,AACGGACC,-0.184 E-score
4,AGCACTAC,-0.0703 E-score
5,AGTTGTAT,0.0957 E-score
6,CAACCCAG,-0.138 E-score
7,AGAATAGG,-0.0981 E-score
8,ATTGGTTG,0.0205 E-score
9,ATCGATTG,0.272 E-score
10,AACGCGAA,0.0618 E-score
11,AGTGCCGC,-0.193 E-score
12,AAATAGCT,0.0072 E-score
13,AGGCTGCA,-0.211 E-score
14,ACATTTGC,-0.103 E-score
15,AAAGTGCA,-0.1 E-score
16,ACGCCAGC,-0.283 E-score
17,CAAACAAA,0.0211 E-score
18,ACAAGTGG,-0.197 E-score
19,CAATTTTA,0.111 E-score
20,AATCACTC,0.133 E-score
21,ACAAGTGT,-0.197 E-score
22,ACCGGTCT,-0.125 E-score

# Source: paper PMC5836133
